{"source": "the supplement of paper PMC8728848", "binders": {"B1": {"name": "DrGal3 (Danio rerio) (protein)", "chain": "MDLSDALDAPPQQNNQQAGGPVWPGQPANPVWPGQPANPTWPGQPNQPAWPGQPNQQWPGQPGQPTAPGWPGPAPQTGPYGAPGQAPQVLTVPLDFPLQNGAYNKMLITINGEVKPNAKQFTVNLRRGNDIAFHINPRFSEGGKPVIVRNSMIGNNWGREERELPSFPFVPGKPFEMKILITDTEYKVAVNKSHLLEFKHRVFELNQITGLSIYNDVTLSTVNVETLQ"}}, "test_in_all_cases": "glycan array binding signal (z-score within array); higher = stronger binding", "settings_in_all_cases": "glycan notation: IUPAC condensed, linker removed", "key": {"[1]": {"biological_target": "Neu5Ac(a2-6)Gal(b1-4)GlcNAc(b1-6)[Gal(b1-3)GlcNAc(b1-3)]Gal(b1-4)Glc", "how_it_was_run": "(§1)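 The Consortium for Functional Glycomics database supplied 3228 glycan arrays, of which those lacking an available protein sequence were dropped. The binding signal, a within-array Z-score, was averaged across arrays of the same protein sequence and across linkers. Negative scores can be read as non-binding.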"}, "[2]": {"biological_target": "Neu5Ac(a2-6)Gal(b1-4)GlcNAc(b1-6)[Gal(b1-3)]GalNAc", "how_it_was_run": "as §1"}, "[3]": {"biological_target": "Neu5Ac(a2-6)Gal(b1-4)GlcNAc6S", "how_it_was_run": "as §1"}, "[4]": {"biological_target": "Neu5Ac(a2-6)GalNAc", "how_it_was_run": "as §1"}, "[5]": {"biological_target": "Neu5Ac(a2-6)GalNAc(b1-4)GlcNAc", "how_it_was_run": "as §1"}, "[6]": {"biological_target": "Neu5Ac(a2-6)GalNAc(b1-4)GlcNAc6S", "how_it_was_run": "as §1"}, "[7]": {"biological_target": "Neu5Ac(a2-6)GlcNAc(b1-4)GlcNAc", "how_it_was_run": "as §1"}, "[8]": {"biological_target": "Neu5Ac(a2-6)GlcNAc(b1-4)GlcNAc(b1-4)GlcNAc", "how_it_was_run": "as §1"}, "[9]": {"biological_target": "Neu5Ac(a2-8)Neu5Ac", "how_it_was_run": "as §1"}, "[10]": {"biological_target": "Neu5Ac(a2-8)Neu5Ac(a2-3)Gal(b1-3)GalNAc(b1-4)[Neu5Ac(a2-3)]Gal(b1-4)Glc", "how_it_was_run": "as §1"}, "[11]": {"biological_target": "Neu5Ac(a2-8)Neu5Ac(a2-3)Gal(b1-3)GalNAc(b1-4)[Neu5Ac(a2-8)Neu5Ac(a2-3)]Gal(b1-4)Glc", "how_it_was_run": "as §1"}, "[12]": {"biological_target": "Neu5Ac(a2-8)Neu5Ac(a2-3)Gal(b1-4)Glc", "how_it_was_run": "as §1"}, "[13]": {"biological_target": "Neu5Ac(a2-8)Neu5Ac(a2-3)Gal(b1-4)GlcNAc", "how_it_was_run": "as §1"}, "[14]": {"biological_target": "Neu5Ac(a2-8)Neu5Ac(a2-3)[Gal(b1-3)GalNAc(b1-4)]Gal(b1-4)Glc", "how_it_was_run": "as §1"}, "[15]": {"biological_target": "Neu5Ac(a2-8)Neu5Ac(a2-3)[GalNAc(b1-4)]Gal(b1-4)Glc", "how_it_was_run": "as §1"}, "[16]": {"biological_target": "Neu5Ac(a2-8)Neu5Ac(a2-8)Neu5Ac", "how_it_was_run": "as §1"}, "[17]": {"biological_target": "Neu5Ac(a2-8)Neu5Ac(a2-8)Neu5Ac(a2-3)Gal(b1-4)Glc", "how_it_was_run": "as §1"}, "[18]": {"biological_target": "Neu5Ac(a2-8)Neu5Ac(a2-8)Neu5Ac(a2-3)[Gal(b1-3)GalNAc(b1-4)]Gal(b1-4)Glc", "how_it_was_run": "as §1"}, "[19]": {"biological_target": "Neu5Ac(a2-8)Neu5Ac(a2-8)Neu5Ac(a2-3)[GalNAc(b1-4)]Gal(b1-4)Glc", "how_it_was_run": "as §1"}, "[20]": {"biological_target": "Neu5Ac(a2-8)Neu5Ac(a2-8)Neu5Ac(a2-8)Neu5Ac(a2-3)[GalNAc(b1-4)]Gal(b1-4)Glc", "how_it_was_run": "as §1"}, "[21]": {"biological_target": "Neu5Ac(a2-8)Neu5Gc(a2-3)Gal(b1-4)GlcNAc", "how_it_was_run": "as §1"}, "[22]": {"biological_target": "Neu5Ac(b2-6)Gal(b1-4)GlcNAc", "how_it_was_run": "as §1"}, "[23]": {"biological_target": "Neu5Ac(b2-6)GalNAc", "how_it_was_run": "as §1"}, "[24]": {"biological_target": "Neu5Ac9Ac(a2-3)Gal(b1-3)GlcNAc", "how_it_was_run": "as §1"}, "[25]": {"biological_target": "Neu5Ac9Ac(a2-3)Gal(b1-4)GlcNAc", "how_it_was_run": "as §1"}, "[26]": {"biological_target": "Neu5Ac9Ac(a2-6)Gal(b1-4)GlcNAc", "how_it_was_run": "as §1"}, "[27]": {"biological_target": "Neu5Gc(a2-3)Gal(b1-3)GlcNAc", "how_it_was_run": "as §1"}, "[28]": {"biological_target": "Neu5Gc(a2-3)Gal(b1-3)[Fuc(a1-4)]GlcNAc", "how_it_was_run": "as §1"}, "[29]": {"biological_target": "Neu5Gc(a2-3)Gal(b1-4)Glc", "how_it_was_run": "as §1"}, "[30]": {"biological_target": "Neu5Gc(a2-3)Gal(b1-4)GlcNAc", "how_it_was_run": "as §1"}, "[31]": {"biological_target": "Neu5Gc(a2-3)Gal(b1-4)GlcNAc(b1-3)Gal(b1-4)GlcNAc(b1-2)Man(a1-3)[Neu5Gc(a2-3)Gal(b1-4)GlcNAc(b1-3)Gal(b1-4)GlcNAc(b1-2)Man(a1-6)]Man(b1-4)GlcNAc(b1-4)GlcNAc", "how_it_was_run": "as §1"}, "[32]": {"biological_target": "Neu5Gc(a2-3)Gal(b1-4)[Fuc(a1-3)]GlcNAc", "how_it_was_run": "as §1"}, "[33]": {"biological_target": "Neu5Gc(a2-6)Gal(b1-4)GlcNAc", "how_it_was_run": "as §1"}, "[34]": {"biological_target": "Neu5Gc(a2-6)GalNAc", "how_it_was_run": "as §1"}, "[35]": {"biological_target": "Neu5Gc(a2-8)Neu5Ac(a2-3)Gal(b1-4)GlcNAc", "how_it_was_run": "as §1"}, "[36]": {"biological_target": "Neu5Gc(a2-8)Neu5Gc(a2-3)Gal(b1-4)GlcNAc", "how_it_was_run": "as §1"}, "[37]": {"biological_target": "Neu5Gc(a2-8)Neu5Gc(a2-3)Gal(b1-4)GlcNAc(b1-3)Gal(b1-4)GlcNAc", "how_it_was_run": "as §1"}, "[38]": {"biological_target": "Neu5Gc(a2-8)Neu5Gc(a2-6)Gal(b1-4)GlcNAc", "how_it_was_run": "as §1"}, "[39]": {"biological_target": "Neu5Gc(b2-6)Gal(b1-4)GlcNAc", "how_it_was_run": "as §1"}}, "note": "The list shows a part of the results.", "data": [{"binder": "B1", "values": [{"measurement": "glycan array binding signal (z-score)", "setting": "[1]", "value": -0.272}, {"measurement": "glycan array binding signal (z-score)", "setting": "[2]", "value": -0.249}, {"measurement": "glycan array binding signal (z-score)", "setting": "[3]", "value": -0.273}, {"measurement": "glycan array binding signal (z-score)", "setting": "[4]", "value": -0.26}, {"measurement": "glycan array binding signal (z-score)", "setting": "[5]", "value": -0.264}, {"measurement": "glycan array binding signal (z-score)", "setting": "[6]", "value": -0.284}, {"measurement": "glycan array binding signal (z-score)", "setting": "[7]", "value": -0.24}, {"measurement": "glycan array binding signal (z-score)", "setting": "[8]", "value": -0.278}, {"measurement": "glycan array binding signal (z-score)", "setting": "[9]", "value": -0.189}, {"measurement": "glycan array binding signal (z-score)", "setting": "[10]", "value": -0.241}, {"measurement": "glycan array binding signal (z-score)", "setting": "[11]", "value": -0.205}, {"measurement": "glycan array binding signal (z-score)", "setting": "[12]", "value": -0.271}, {"measurement": "glycan array binding signal (z-score)", "setting": "[13]", "value": -0.305}, {"measurement": "glycan array binding signal (z-score)", "setting": "[14]", "value": -0.239}, {"measurement": "glycan array binding signal (z-score)", "setting": "[15]", "value": -0.184}, {"measurement": "glycan array binding signal (z-score)", "setting": "[16]", "value": -0.251}, {"measurement": "glycan array binding signal (z-score)", "setting": "[17]", "value": -0.195}, {"measurement": "glycan array binding signal (z-score)", "setting": "[18]", "value": -0.224}, {"measurement": "glycan array binding signal (z-score)", "setting": "[19]", "value": -0.239}, {"measurement": "glycan array binding signal (z-score)", "setting": "[20]", "value": -0.212}, {"measurement": "glycan array binding signal (z-score)", "setting": "[21]", "value": -0.3}, {"measurement": "glycan array binding signal (z-score)", "setting": "[22]", "value": -0.231}, {"measurement": "glycan array binding signal (z-score)", "setting": "[23]", "value": -0.29}, {"measurement": "glycan array binding signal (z-score)", "setting": "[24]", "value": -0.271}, {"measurement": "glycan array binding signal (z-score)", "setting": "[25]", "value": -0.155}, {"measurement": "glycan array binding signal (z-score)", "setting": "[26]", "value": -0.232}, {"measurement": "glycan array binding signal (z-score)", "setting": "[27]", "value": -0.257}, {"measurement": "glycan array binding signal (z-score)", "setting": "[28]", "value": -0.233}, {"measurement": "glycan array binding signal (z-score)", "setting": "[29]", "value": -0.285}, {"measurement": "glycan array binding signal (z-score)", "setting": "[30]", "value": -0.247}, {"measurement": "glycan array binding signal (z-score)", "setting": "[31]", "value": 1.99}, {"measurement": "glycan array binding signal (z-score)", "setting": "[32]", "value": -0.086}, {"measurement": "glycan array binding signal (z-score)", "setting": "[33]", "value": -0.29}, {"measurement": "glycan array binding signal (z-score)", "setting": "[34]", "value": -0.254}, {"measurement": "glycan array binding signal (z-score)", "setting": "[35]", "value": -0.212}, {"measurement": "glycan array binding signal (z-score)", "setting": "[36]", "value": -0.283}, {"measurement": "glycan array binding signal (z-score)", "setting": "[37]", "value": -0.206}, {"measurement": "glycan array binding signal (z-score)", "setting": "[38]", "value": -0.285}, {"measurement": "glycan array binding signal (z-score)", "setting": "[39]", "value": -0.254}]}]}
